Some of the results follow. These are further read-outs of the screen, such as a control signal, another cell line or another target. No call is given for them.

Common to all, as to test: Primary Screen for Target Class Profiling of Small Molecule Inhibitors of Methyltransferases
The target in assay [1] is Glycine N-methyltransferase (Homo sapiens) (UniProt Q14749). As to conditions: purified enzyme, MTase-Glo SAH luminescence; measured here: GNMT inhibition; at 40 µM; stronger effect = lower value. In a few lines:
(§1)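 Each enzyme was assayed with SAM and its substrate. SAH formation detected by MTase-Glo luminescence; single-point 40 uM screen[…].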

For assay [2], the target named is Guanidinoacetate N-methyltransferase (Homo sapiens) (UniProt Q14353). As to conditions: purified enzyme, MTase-Glo SAH luminescence; measured here: GAMT inhibition; at 40 µM; stronger effect = lower value. In a few lines: as §1
In assay [3] the target is Histamine N-methyltransferase (Homo sapiens) (UniProt P50135). As to conditions: purified enzyme, MTase-Glo SAH luminescence; measured here: HNMT inhibition; at 40 µM; stronger effect = lower value. In a few lines:
as §1

Assay [4] addresses Nicotinamide N-methyltransferase (Homo sapiens) (UniProt P40261). As to conditions: purified enzyme, MTase-Glo SAH luminescence; measured here: NNMT inhibition; at 40 µM; stronger effect = lower value. In a few lines: as §1
The target of assay [5] is Phenylethanolamine N-methyltransferase (Homo sapiens) (UniProt P11086). As to conditions: purified enzyme, MTase-Glo SAH luminescence; measured here: PNMT inhibition; at 40 µM; stronger effect = lower value. In a few lines: as §1
On the % scale 0 is the no-effect control and ±100 the full control effect.

Turning to `CC1(C(=O)O)CCCC2(C)C3CCC4CC3(CCC12)CC4C(=O)O` (stereo not given), the activity change, negative = inhibition was 0.669% in assay [1]; 2.97% in assay [2]; 10% in assay [3]; -8.84% in assay [4]; -1.27% in assay [5].

On to `O=C([C@@H]1C[C@@H](c2ccc(F)cc2)N([S+](=O)([O-])c2cccnc2)C1)N1CCOCC1`, for which the activity change, negative = inhibition in assay [1] is -5.06%; in assay [2], -8.02%; in assay [3], -2.15%; in assay [4], -13.2%; in assay [5], -9.11%.

With `Cc1ccc2c(c1)c(-n1cccc1)c1n2CC(C)(C(=O)NCCC(C)C)N(Cc2cccs2)C1=O` (stereo not given), the activity change, negative = inhibition in assay [1] is 1.19%; in assay [2] it was 0%; in assay [3], -0.453%; in assay [4] it was -8.13%; in assay [5], -1.42%.

`CCn1ncc(NC(=O)Cn2ncc3cc(-c4ccccc4F)ccc32)n1`: the activity change, negative = inhibition was -8.13% in assay [1]; -3.94% in assay [2]; -2.22% in assay [3]; -5.68% in assay [4]; 2.14% in assay [5].

In the case of `Cn1cc(CN2CCOc3cc([S+](=O)([O-])Nc4ccccc4)ccc3C2)cn1`, the activity change, negative = inhibition is -3.25% in assay [1]; -1.62% in assay [2]; -0.122% in assay [3]; -1.57% in assay [4]; 4.11% in assay [5].

Consider `CS(=O)(=O)Nc1ccc(OCC(=O)N2CCN(c3ccc(F)cc3)CC2)nc1`, for which the activity change, negative = inhibition in assay [1] was -2.58%; in assay [2], -1.35%; in assay [3] it was 2.05%; in assay [4], -4.44%; in assay [5], -3.85%.

Regarding `CCOC(=O)c1cccc(NC(=O)N2Cc3c(sc4c3CCCC4)-n3cccc3C2C(C)C)c1` (stereo not given), the activity change, negative = inhibition in assay [1] was -4.62%; in assay [2], 0%; in assay [3], -2.49%; in assay [4] it was -9.64%; in assay [5], -3.28%.

For `C=CCn1c(=O)c2ccc(C(=O)NCC(C)C)cc2n2c(=O)n(CC(=O)NC3CCCC3)nc12`, the activity change, negative = inhibition in assay [1] was -0.893%; in assay [2] it was 2.44%; in assay [3] it was 4.47%; in assay [4], -16.6%; in assay [5] it was -3.24%.

For the molecule `COCCn1c(C)cnc1CCNC(=O)Cn1nc(C(F)(F)F)cc1C`, the activity change, negative = inhibition is 0.149% in assay [1]; -0.853% in assay [2]; 2.17% in assay [3]; -9.91% in assay [4]; 12.5% in assay [5].

Turning to `Cc1cc2c(cc1N1C(=O)c3cccc4c(CCCO)ccc(c34)C1=O)n(C)c(=O)n2C`, the activity change, negative = inhibition is -19.5% in assay [1]; -19.5% in assay [2]; 5.94% in assay [3]; -24.1% in assay [4]; -8.57% in assay [5].

For the molecule `O=c1cc2c(nn1Cc1cccc(Br)c1)CCCCC2`, the activity change, negative = inhibition is -9.34% in assay [1]; -1.69% in assay [2]; -4.05% in assay [3]; -28.8% in assay [4]; -4.95% in assay [5].

As for `CC(C)N1C(=O)[C@@H]2[C@@H](CCN2C(=O)CCCC(=O)O)N(Cc2cccc(F)c2)C1=O`, the activity change, negative = inhibition was -1.88% in assay [1]; -7.27% in assay [2]; -0.238% in assay [3]; -4.71% in assay [4]; -3.81% in assay [5].

`Cc1oc2nc3c(c(NC(=O)CN4CCCC4=O)c2c1C)CCCC3`: the activity change, negative = inhibition in assay [1] is -6.5%; in assay [2], -7.75%; in assay [3], 1.58%; in assay [4] it was -17.5%; in assay [5], -3.96%.

Take `CCCC1=CC2=C(CO1)C(=O)C(C)(OC(=O)c1c(C)cc(OC)cc1O)C(O)C2` (stereo not given): the activity change, negative = inhibition in assay [1] is -0.782%; in assay [2], 4.11%; in assay [3], 7.36%; in assay [4] it was -10.6%; in assay [5] it was -2.48%.

For the molecule `O=C(COc1ccc2ccccc2c1Br)Nc1cccnc1`, the activity change, negative = inhibition in assay [1] was -11.6%; in assay [2] it was 3.2%; in assay [3], 9.02%; in assay [4], -25.1%; in assay [5] it was -6.38%.

`CC(C)c1cccc(C(C)C)c1NC(=O)Nc1ccc(Sc2ccc([N+](=O)[O-])cc2)cc1`: the activity change, negative = inhibition in assay [1] is 1.83%; in assay [2], -39.1%; in assay [3], 8.67%; in assay [4], -42.5%; in assay [5] it was -4.03%.

As for `CN(CCC1CCOCC1)Cc1ccccc1OCC(O)CN1CCSCC1` (stereo not given), the activity change, negative = inhibition in assay [1] was 1.62%; in assay [2], 1.67%; in assay [3], 0.198%; in assay [4], -2.86%; in assay [5] it was 14.2%.

As to `CCCSCCCN1C(=O)c2ccc(-c3ccco3)n2CC1(C)C(=O)NC1CCCC1` (stereo not given), the activity change, negative = inhibition in assay [1] was -0.435%; in assay [2] it was 0.044%; in assay [3], 3.5%; in assay [4] it was -0.278%; in assay [5], -2.19%.

On to `COC1CC/C=C(\C)C(=O)Nc2cc(O)cc(c2)CC(C)CC(OC)C(O)C(C)/C=C(\C)C1OC(N)=O` (stereo not given), for which the activity change, negative = inhibition is 4.8% in assay [1]; 4.54% in assay [2]; 5.17% in assay [3]; -9.6% in assay [4]; 3.45% in assay [5].

Regarding `Cc1oc2ccn(C)c(=O)c2c1C(=O)NCc1cc(F)ccc1F`, the activity change, negative = inhibition in assay [1] was -40.6%; in assay [2], -5.96%; in assay [3] it was -4.46%; in assay [4], -14.6%; in assay [5] it was -5.87%.

In the case of `CN1CCCN(S(=O)(=O)c2cn(C)cn2)c2ccccc21`, the activity change, negative = inhibition was -7.04% in assay [1]; -1.93% in assay [2]; -10.2% in assay [3]; -4.74% in assay [4]; -8.02% in assay [5].

On to `O=C(N[C@@H]1CCN(C(=O)CCCn2cccn2)C[C@H]1O)c1ccccn1`, for which the activity change, negative = inhibition is -0.692% in assay [1]; 0.584% in assay [2]; -1.5% in assay [3]; 2.16% in assay [4]; 11.4% in assay [5].

In the case of `COc1ccc(OC)c(CNC(=O)Cn2ccc3cc(S(=O)(=O)N4CCCCC4)ccc32)c1`, the activity change, negative = inhibition in assay [1] is -3.75%; in assay [2], 0.141%; in assay [3], -3.52%; in assay [4], -14.4%; in assay [5], -2.1%.

With `Cn1cnc(S(=O)(=O)N2c3ccccc3CC2c2noc(C3CCOCC3)n2)c1` (stereo not given), the activity change, negative = inhibition in assay [1] was 0.599%; in assay [2], 0.64%; in assay [3], 1.74%; in assay [4], -4.66%; in assay [5], 3.77%.

Regarding `Cc1cc2c(cc3n2CC(C)(C(=O)NC2CCCCCC2)N(c2ccc(C)c(C)c2)C3=O)o1` (stereo not given), the activity change, negative = inhibition was -2.63% in assay [1]; 0% in assay [2]; 7.08% in assay [3]; -1.54% in assay [4]; 2.69% in assay [5].

As for `CC(C)NC(=O)NC1CC2(CCN(C(=O)Cc3ccc(O)cc3)CC2)c2ccccc21` (stereo not given), the activity change, negative = inhibition in assay [1] was -4.76%; in assay [2], -0.598%; in assay [3], -2.16%; in assay [4], -5.13%; in assay [5] it was -0.031%.

Turning to `CCC(=O)N1CCC(CC(=O)N2CCOCC2)C1` (stereo not given), the activity change, negative = inhibition is -0.311% in assay [1]; 1.01% in assay [2]; -0.217% in assay [3]; -0.849% in assay [4]; 10.8% in assay [5].

Turning to `COc1cc(OC)cc(N2C(=O)c3cc(C(C)(C)C)nn3CC2(C)C(=O)NC2CCCCCC2)c1` (stereo not given), the activity change, negative = inhibition in assay [1] was -0.726%; in assay [2], 0%; in assay [3], 1.89%; in assay [4], -1.19%; in assay [5], -3.14%.

With `COc1ccc(CN2C(=O)c3ccc(-c4ccco4)n3CC2(C)C(=O)NC2CCCCCCC2)cc1` (stereo not given), the activity change, negative = inhibition is -11.6% in assay [1]; 0.883% in assay [2]; -1.61% in assay [3]; -15.4% in assay [4]; -7.72% in assay [5].

With `c1ccc2nc(C3=NCCN3)ccc2c1`, the activity change, negative = inhibition in assay [1] was 11.3%; in assay [2] it was 12.8%; in assay [3], 12.2%; in assay [4], -6.16%; in assay [5], -22.1%.

As for `Cc1noc(C)c1S(=O)(=O)N1CCCC(Cc2nncn2C(C)C)C1` (stereo not given), the activity change, negative = inhibition was 0.672% in assay [1]; -2.38% in assay [2]; 0.858% in assay [3]; -1.47% in assay [4]; -15.4% in assay [5].

On to `CC1CCN(S(=O)(=O)c2ccc3c(ccn3CCC(=O)NCCC3=CCCCC3)c2)CC1`, for which the activity change, negative = inhibition in assay [1] was -5.16%; in assay [2] it was 0%; in assay [3] it was -3.97%; in assay [4], -12.4%; in assay [5] it was -6.42%.

On to `C=CCn1c(CN2CCC3(CC(=O)NC3=O)C2)nc2ccccc21` (stereo not given), for which the activity change, negative = inhibition was -9.02% in assay [1]; -10.2% in assay [2]; -5.67% in assay [3]; -32.2% in assay [4]; -11.2% in assay [5].

As for `CC(C)CCn1c(=O)c2ccc(C(=O)NC3CCCCC3)cc2n2c(=O)n(Cc3ccccc3F)nc12`, the activity change, negative = inhibition amounted to 2.72% in assay [1]; 1.18% in assay [2]; 6.49% in assay [3]; 2.93% in assay [4]; 2.19% in assay [5].

As to `CCc1cccc(NC(=O)c2cc3n(n2)CC(C)(C(=O)NC2CCCCC2)N(C)C3=O)c1` (stereo not given), the activity change, negative = inhibition in assay [1] came out at 5.45%; in assay [2] it was 0%; in assay [3] it was 5.96%; in assay [4], 1.68%; in assay [5], 2.61%.

Take `CCCn1c(=O)c2ccc(C(=O)NC(C)CC)cc2n2c(=O)n(CC(=O)c3cc(C)ccc3C)nc12` (stereo not given): the activity change, negative = inhibition in assay [1] is 4.71%; in assay [2] it was 0.536%; in assay [3], 10.4%; in assay [4] it was -2.29%; in assay [5], 5.67%.

Consider `CCCN1C(=O)c2cc3sccc3n2CC1(C)C(=O)NC1CCCCCCC1` (stereo not given), for which the activity change, negative = inhibition in assay [1] is -5.29%; in assay [2] it was 3.67%; in assay [3], -1.8%; in assay [4], -4.33%; in assay [5], -3.34%.

For the molecule `Clc1ccc2c(c1)C1C=CCC1C(c1ccccc1Br)N2` (stereo not given), the activity change, negative = inhibition in assay [1] was 1.19%; in assay [2], 0%; in assay [3], 4.61%; in assay [4] it was -3.8%; in assay [5], 0.39%.

Regarding `Cc1ncoc1C(=O)N1CCC[C@H](n2c(=O)n(C)c3cccnc32)C1`, the activity change, negative = inhibition in assay [1] was -5.03%; in assay [2] it was -2.15%; in assay [3], -2.51%; in assay [4], -4.7%; in assay [5], -5.1%.

With `CC(CNC(=O)Cn1ccc2cc(S(=O)(=O)N3CCCCC3)ccc21)c1ccccc1` (stereo not given), the activity change, negative = inhibition is 1.54% in assay [1]; -4.76% in assay [2]; -8.68% in assay [3]; -6.75% in assay [4]; -8.93% in assay [5].

The values above are taken from PubChem BioAssay AID1745853 (National Center for Advancing Translational Sciences (NCATS), 2022).
